Reference: the supplement of paper PMC8728848
Some of the results follow.

Assays:
Experiment in all cases: glycan array binding signal (z-score within array); higher = stronger binding
Details in all cases: glycan notation: IUPAC condensed, linker removed
[1] = molecular target: Fuc(a1-2)Gal
Outline: (§1)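 The binding signal is a Z-score computed within each array and averaged over linkers. Arrays of the same protein sequence at different concentrations or buffers were also averaged together. Data originate from 3228 arrays in the Consortium for Functional Glycomics database, kept only where the protein sequence was available.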

[2] = molecular target: Fuc(a1-2)Gal(b1-3)GalNAc
Outline: as §1

[3] = molecular target: Fuc(a1-2)Gal(b1-3)GalNAc(a1-3)[Fuc(a1-2)]Gal(b1-4)Glc
Outline: as §1

[4] = molecular target: Fuc(a1-2)Gal(b1-3)GalNAc(a1-3)[Fuc(a1-2)]Gal(b1-4)GlcNAc
Outline: as §1

[5] = molecular target: Fuc(a1-2)Gal(b1-3)GalNAc(b1-3)Gal
Outline: as §1

[6] = molecular target: Fuc(a1-2)Gal(b1-3)GalNAc(b1-3)Gal(a1-4)Gal(b1-4)Glc
Outline: as §1

[7] = molecular target: Fuc(a1-2)Gal(b1-3)GalNAc(b1-4)[Neu5Ac(a2-3)]Gal(b1-4)Glc
Outline: as §1

[8] = molecular target: Fuc(a1-2)Gal(b1-3)GlcNAc
Outline: as §1

[9] = molecular target: Fuc(a1-2)Gal(b1-3)GlcNAc(b1-2)Man(a1-3)[Fuc(a1-2)Gal(b1-3)GlcNAc(b1-2)Man(a1-6)]Man(b1-4)GlcNAc(b1-4)GlcNAc
Outline: as §1

[10] = molecular target: Fuc(a1-2)Gal(b1-3)GlcNAc(b1-2)Man(a1-3)[Fuc(a1-2)Gal(b1-3)GlcNAc(b1-2)Man(a1-6)]Man(b1-4)GlcNAc(b1-4)[Fuc(a1-6)]GlcNAc
Outline: as §1

[11] = molecular target: Fuc(a1-2)Gal(b1-3)GlcNAc(b1-3)Gal(b1-4)Glc
Outline: as §1

[12] = molecular target: Fuc(a1-2)Gal(b1-3)GlcNAc(b1-3)GalNAc
Outline: as §1

[13] = molecular target: Fuc(a1-2)Gal(b1-3)GlcNAc(b1-3)[Fuc(a1-2)Gal(b1-3)GlcNAc(b1-6)]GalNAc
Outline: as §1

[14] = molecular target: Fuc(a1-2)Gal(b1-3)GlcNAc(b1-3)[Gal(b1-4)GlcNAc(b1-6)]Gal(b1-4)Glc
Outline: as §1

[15] = molecular target: Fuc(a1-2)Gal(b1-3)GlcNAc(b1-3)[Neu5Ac(a2-6)Gal(b1-4)GlcNAc(b1-6)]Gal(b1-4)Glc
Outline: as §1

[16] = molecular target: Fuc(a1-2)Gal(b1-3)GlcNAc6S
Outline: as §1

[17] = molecular target: Fuc(a1-2)Gal(b1-3)[Fuc(a1-4)]GlcNAc
Outline: as §1

[18] = molecular target: Fuc(a1-2)Gal(b1-3)[Fuc(a1-4)]GlcNAc(b1-2)Man(a1-3)[Fuc(a1-2)Gal(b1-3)[Fuc(a1-4)]GlcNAc(b1-2)Man(a1-3)]Man(b1-4)GlcNAc(b1-4)GlcNAc
Outline: as §1

[19] = molecular target: Fuc(a1-2)Gal(b1-3)[Fuc(a1-4)]GlcNAc(b1-2)Man(a1-3)[Fuc(a1-2)Gal(b1-3)[Fuc(a1-4)]GlcNAc(b1-2)Man(a1-6)]Man(b1-4)GlcNAc(b1-4)[Fuc(a1-6)]GlcNAc(b1-4)[Fuc(a1-6)]GlcNAc
Outline: as §1

[20] = molecular target: Fuc(a1-2)Gal(b1-3)[Fuc(a1-4)]GlcNAc(b1-3)[Fuc(a1-3)[Gal(b1-4)]GlcNAc(b1-6)]Gal(b1-4)Glc
Outline: as §1

[21] = molecular target: Fuc(a1-2)Gal(b1-3)[Fuc(a1-4)]GlcNAc(b1-3)[Gal(b1-4)GlcNAc(b1-6)]Gal(b1-4)Glc
Outline: as §1

[22] = molecular target: Fuc(a1-2)Gal(b1-4)Fuc(a1-3)]GlcNAc(b1-2)Man(a1-3)[Fuc(a1-2)Gal(b1-4)[Fuc(a1-3)]GlcNAc(b1-2)Man(a1-6)]Man(b1-4)GlcNAc(b1-4)GlcNAc
Outline: as §1

[23] = molecular target: Fuc(a1-2)Gal(b1-4)Glc
Outline: as §1

[24] = molecular target: Fuc(a1-2)Gal(b1-4)Glc6S
Outline: as §1

[25] = molecular target: Fuc(a1-2)Gal(b1-4)GlcNAc
Outline: as §1

[26] = molecular target: Fuc(a1-2)Gal(b1-4)GlcNAc(b1-2)Man
Outline: as §1

[27] = molecular target: Fuc(a1-2)Gal(b1-4)GlcNAc(b1-2)Man(a1-3)[Fuc(a1-2)Gal(b1-4)GlcNAc(b1-2)Man(a1-6)]Man(b1-4)GlcNAc(b1-4)GlcNAc
Outline: as §1

[28] = molecular target: Fuc(a1-2)Gal(b1-4)GlcNAc(b1-2)Man(a1-3)[Fuc(a1-2)Gal(b1-4)GlcNAc(b1-2)Man(a1-6)]Man(b1-4)GlcNAc(b1-4)[Fuc(a1-6)]GlcNAc
Outline: as §1

[29] = molecular target: Fuc(a1-2)Gal(b1-4)GlcNAc(b1-2)[Fuc(a1-2)Gal(b1-4)GlcNAc(b1-4)]Man(a1-3)[Fuc(a1-2)Gal(b1-4)GlcNAc(b1-2)Man(a1-6)]Man(b1-4)GlcNAc(b1-4)GlcNAc
Outline: as §1

[30] = molecular target: Fuc(a1-2)Gal(b1-4)GlcNAc(b1-3)Gal(b1-4)GlcNAc
Outline: as §1

B1: InvD YPIII (Yersinia pseudotuberculosis), B1JSC0 (protein)
chain: MIKYFSFFKKPEPIVGILPNRQSHHILPTHIRRVAWGTLLLQLFIPLSVSFSPAIAAMKASKADTMVSYSSTEPYVLGSGETVAMVAKKYGITVDELKKINIYRTFSRPFTALTTGDEIDIPRKASPFSVDNNKDNRLSVENTLAGHAVAGATALSNGDVAKSGERMVRSAASNEFNNSAQQWLSQFGTARVQLNINDDFHLDGSAADVLIPLYDNEKSILFTQLGARNKDSRNTVNMGAGVRTFQGNWMYGANTFFDNDLTGKNRRIGVGAEAWTDYLKLSANNYFGITDWHQSRDFIDYNERPANGYDLRAEAYLPSYPQLGGKAMYEKYRGDDVALFGKDNRQKNPHAITAGVNYTPIPLVTIGAEHRAGKGGQNDSNINFQLNYRLGETWQSHIDPSAVAASRTLAGSRYDLVERNNHIVLDYQKQNLVRLSLPDSLAGDPFSQLSVTAQVTATHGLERIDWQSAELMAAGGVLKQTSKNGLEITLPEYQMNRTGGNSYILNAIAYDTQGNASSQASMLITVNAQKINIANSTLVAVPINIEANNSDTSVVTLTLKDDNNIPVTGQDVTFLSPLGTLSAMTDSGNGVYTATLTAGTVSGTTAVSSNINGSALDMTPATVTLNGNSGELSITHSMLVAAPVNIEANGSDTSVVTLTLRDSNNNPVTGQTVTFAGTLGTLGAVTEGSSGVYTATLTAGIMVGTSSITASVNSTALGVTPATVTLNGDSGNLSTTNSTLVAAPVNIEANSSDTSVVTLTLRDNNNNPVTGQTVVFTSTLGTLGNVTEQASGVYTATLTAGTVSGVASLSVSVGGNALGVTPATVTLNGDSGNLSTTNSTLVAAPVNIEANSSDTSVVTLTLRDNNNNPVTGQTVNFAGTLGTLGTVSEGSSGVYTTTLTAGTVAGVASLSVNVGGNALGVTPATVTLNGNSGNLSATNSTLVAAPVNIEANSSDTSVVTLTLRDNNNNPVTGQTVAFTSTLGTLGNVTEQASGVYTATLTAGTVSGVASLSVSVNSNALGVTPATVTLNGDSGNLSTTNSTLVAAPVNIEANSSDTSVVTLTLRDNNNNPVTGQTVAFTSTLGTLGNVTEQASGLYTATLTAGTVSGVASLSVNVGGNALGVTPATVTLNGDSGNLSATNSTLVAAPVNIEANSSDTSVVTLTLRDNNNNPVTGQTVAFTSTLGTLGNVTEQASGLYTATLTAGTVSGVASLSVNVGGTALGVTPATVTLNGDSGNLSTTNSTLVAAPVNIEANSSDTSVVTLTLRDNNNNPVTGQTVAFTSTLGTLGNVTEQASGLYTATLTAGTVSGVASLSVSVNSTALGVTPATVTLNGDSGNLSTTNSTLVAAPVNIEANSSDTSVVTLTLRDNNNNPVTGQTVAFTSTLGTLGNVTEQASGVYTATLTAGTVAGVASLSVNVGGNALGVTPATVTLNGDSGNLSTTNSTLVAAPVNIEANSSDTSVVTLTLRDNNNNPVTGQTVAFTSTLGTLGNVTEQASGVYTATLTAGTVSGVASLSVSVGSSALGVTPATVTLNGDSGNLSTTNSTLVAAPVNIEANNSDTSVVTLTLRDNNNNPVTGQTVAFTSTLGTLGNVTEQASGVYTATLTAGTVSGVASLSVSVNSNALGVTPATVTLNGDSGNLSTTNSTLVAAPVNIEANSSDTSVVTLTLRDNNNNPVTGQTVVFTSTLGTLGNVTEQASGLYTATLTAGTVSGVASLSVSVGGNALGVTGNITLAPGALDAARSILAVNKPSINADDRIGSTITFTAQDAQGNAITGLDIAFMTDLENSQIMTLVDHNDGTYTANINGTQTGIANIAVQSSGATIAGLAATMVTITPGAWNTTQATPVMTVALPITTCQSSSGVYKRYYIGIVTHELYDNYGNEISGILTYNLGAGRYTTVTSQNSSVSGSNGLTRRSNSPVSHFILTSDAYTSQAACYAERIANVNVTITVTAITDDFKTSAVNKVFILGTGSN
For B1, the “glycan array binding signal (z-score)” value [1] was -0.299, the “glycan array binding signal (z-score)” value [2] was -0.203 and the “glycan array binding signal (z-score)” value [3] was -0.195. The “glycan array binding signal (z-score)” value [4] was -0.404, the “glycan array binding signal (z-score)” value [5] was -0.304 and the “glycan array binding signal (z-score)” value [6] was -0.14. For the same binder, the “glycan array binding signal (z-score)” value [7] was -0.15, the “glycan array binding signal (z-score)” value [8] was -0.32 and the “glycan array binding signal (z-score)” value [9] was 0.001. The “glycan array binding signal (z-score)” value [10] was 0.675, the “glycan array binding signal (z-score)” value [11] was -0.25 and the “glycan array binding signal (z-score)” value [12] was -0.26. For the same binder, the “glycan array binding signal (z-score)” value [13] was 0.095, the “glycan array binding signal (z-score)” value [14] was -0.265 and the “glycan array binding signal (z-score)” value [15] was -0.231. For the same binder, the “glycan array binding signal (z-score)” value [16] was -0.04, the “glycan array binding signal (z-score)” value [17] was -0.291 and the “glycan array binding signal (z-score)” value [18] was 0.493. The “glycan array binding signal (z-score)” value [19] was -0.034, the “glycan array binding signal (z-score)” value [20] was -0.437 and the “glycan array binding signal (z-score)” value [21] was 0. The “glycan array binding signal (z-score)” value [22] was 1.36, the “glycan array binding signal (z-score)” value [23] was -0.256 and the “glycan array binding signal (z-score)” value [24] was -0.048. The “glycan array binding signal (z-score)” value [25] was -0.154, the “glycan array binding signal (z-score)” value [26] was -0.164 and the “glycan array binding signal (z-score)” value [27] was 0.511. The “glycan array binding signal (z-score)” value [28] was 0.037, the “glycan array binding signal (z-score)” value [29] was 0.402 and the “glycan array binding signal (z-score)” value [30] was -0.407.
